# Data: PubChem BioAssay AID1347428 (National Center for Advancing Translational Sciences (NCATS), 2020)
# Out of some 91,000 compounds screened, about 290 (0.32%) were called active. The inconclusive results got no clear call from the source; some entries with a clear call stand among them for comparison. Calls come from the whole dose curve; as a rule, active = well fitted inhibition curve with a large enough effect; inconclusive = small, poorly fitted or top-dose-only effect; inactive = no such curve, though single readings can be large or run the other way. A potency beside an inconclusive call is a rough fit, not a confirmed value.
# Target: Single-stranded DNA cytosine deaminase (Homo sapiens) (UniProt Q9GZX7)
# Sequence of UniProt Q9GZX7 (Q9GZX7 whole entry, looked up): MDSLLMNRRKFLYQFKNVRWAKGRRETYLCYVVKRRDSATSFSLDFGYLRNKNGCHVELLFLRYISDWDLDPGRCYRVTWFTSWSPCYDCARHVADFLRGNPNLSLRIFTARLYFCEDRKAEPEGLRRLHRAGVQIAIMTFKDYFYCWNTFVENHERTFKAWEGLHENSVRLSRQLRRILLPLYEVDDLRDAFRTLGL
# Assay: Primary qHTS assay for inhibitors of Activation Induced Cytidine Deaminase (AID): AID signal; note: nearly all actives have a fitted effect of over 25% in size
# Conditions: AID deamination FRET fluorescence, UDG-coupled, 4 h; activity change, negative = inhibition: at 115 µM (top of the series)
# % is set by controls: 0 for no effect and ±100 for the full control effect; potency is the fitted concentration of half-maximal effect; tags give direction and shape of the fitted curve.
Compound,Potency,"activity change, negative = inhibition"
COc1ccc(C(CC(=O)Nc2ccc(C)c(C)c2)N2Cc3ccccc3C2=O)cc1OC (centres undefined),"inconclusive: 14.1 µM [inhibitor, full curve, poor fit]",–
COc1ccc(C)cc1NC(=O)CN(c1cc(C(F)(F)F)ccc1Cl)S(C)(=O)=O,"inconclusive: 56.2 µM [inhibitor, single point]",–
Cc1oc(-c2cccc(Cl)c2)nc1CN1CCCC(C(=O)NCc2ccc(F)cc2)C1 (centres undefined),"inconclusive: 35.5 µM [inhibitor, full curve]",–
Cc1ccc(-c2ccc(C=C(C#N)C#N)n2C)cc1,–,inactive: 0.392%
O=C(c1cc2ccccc2o1)c1ccc(F)cc1F,–,inactive: -2.04%
COc1ccc(OCCCn2c(=O)oc3ccc(C)cc32)cc1,"inconclusive: 5.01 µM [inhibitor, full curve, poor fit]",–
O=C(CC1CCCC1)NCCCCNC(=O)CC1CCCC1,–,inactive: -3.79%
Cc1ccc(CNC(=O)c2ccc(CSCc3ccc(Cl)cc3)o2)cc1,"inconclusive: 11.2 µM [inhibitor, partial curve, poor fit]",–
Cc1ccnc(NC(=O)c2cc(-c3ccncc3)nc3ccccc23)c1,"inconclusive: 89.1 µM [inhibitor, single point]",–
CCn1c(C(=O)N2CCC(C(=O)NCCc3ccccc3)CC2)cc2sccc21,"inconclusive: 56.2 µM [inhibitor, partial curve, poor fit]",–
N#Cc1cc2c(nc1SCCOc1ccccc1)CCCCC2,–,inactive: -11.5%
CCCCN(CC)CCNC(=O)c1cc2c(-c3ccc(Cl)cc3)nn(C)c2s1,active: 89.1 µM,–
COc1cc(Cl)ccc1Nc1ncc(C(=O)N2CCN(c3ccccc3OC)CC2)c2ccccc12,"inconclusive: 8.91 µM [inhibitor, full curve, poor fit]",–
Cc1cc(-c2ccccc2)c(-c2nc3ccccc3s2)[nH]1,–,inactive: 67.1%
CCc1ccc(CNC(=O)C(=O)c2c(C)[nH]c3ccccc23)cc1,–,inactive: 1.25%
Cc1ccc(C(=O)N2CCC(c3c[nH]c4ccccc34)(c3c[nH]c4ccccc34)CC2)cc1,"inconclusive: 35.5 µM [inhibitor, partial curve]",–
Cn1nccc1C(=O)NCc1ccc2c(c1)CCN2C(=O)c1ccc(F)cc1,"inconclusive: 31.6 µM [inhibitor, full curve]",–
CCOc1ccccc1NC(=O)C(=O)c1c[nH]c2c(CC)cccc12,–,inactive: -0.839%
COc1ccc(Cl)cc1C(=O)NCCS(=O)(=O)N1CCN(c2ccccc2OC)CC1,"inconclusive: 56.2 µM [inhibitor, partial curve, poor fit]",–
CCCCC(=O)N/N=C(\C)Cc1ccccc1,–,inactive: 3.92%
COc1ccc2cc(C(=O)N3CCN(c4ccccc4O)CC3)c(C)nc2c1,–,inactive: -7.57%
Cc1cccc(C(=O)NCc2nc3ccccc3n2Cc2ccccc2Cl)c1,–,inconclusive: -35.5% [inhibitor]
COc1ccc(CNC(C)C)c2ccccc12,–,inactive: -6.4%

Compound,Potency,"activity change, negative = inhibition"
COc1ccc(-c2ccc(=O)n(CC(=O)N3CCC(Cc4ccccc4)CC3)n2)cc1,"inconclusive: 56.2 µM [inhibitor, partial curve, poor fit]",–
Cc1ccc2c(c1)cc(S(=O)(=O)c1ccccc1)c(=O)n2CC(=O)N1CCCC1,–,inactive: -9.79%
Cc1cccc(C(=O)OC2CCCN(C)C2)c1 (centres undefined),–,inactive: 1.04%
CN(CC(=O)Nc1ccccc1Br)C(=O)CCc1ncc(-c2ccc(F)cc2F)o1,–,inactive: 1.59%
Cn1nc(-c2ccccc2F)c2cc(C(=O)N3CCN(c4ccccc4F)CC3)sc21,"inconclusive: 28.2 µM [inhibitor, full curve]",–
COC(=O)c1ccc2c(=O)n(CCCCCC(=O)N3CCN(c4cccc(C)c4C)CC3)c(=O)[nH]c2c1,"inconclusive: 39.8 µM [inhibitor, single point]",–
CCOc1cc(CNc2ccc(O)cc2)cc(Cl)c1OCc1ccccc1,"inconclusive: 28.2 µM [inhibitor, full curve, poor fit]",–
CCOc1ccc(/C=C/c2nc(C#N)c(NCCN(C)C)o2)cc1,–,inactive: -3.09%
Fc1ccc(-n2ncc3c(NC4CCCCCC4)ncnc32)cc1,inactive,–
COc1ccc(-n2nc(C)c3c2NC(=O)CC3c2cccc(OC)c2OC(C)C)nn1 (centres undefined),–,inactive: -14.8%
CCOc1ccc(NC(=O)C(CC)n2c(=O)c(-c3ccccc3NC(C)=O)nc3ccccc32)cc1 (centres undefined),"inconclusive: 56.2 µM [inhibitor, partial curve, poor fit]",–
COc1ccccc1OCCSc1nc(-c2ccc(C(C)(C)C)cc2)nc2cc(=O)[nH]n12,active: 79.4 µM,–
NNc1nc(NCc2ccccc2)nc(Nc2ccccc2)n1,"inconclusive: 50.1 µM [inhibitor, partial curve, poor fit]",–
c1ccc(NC2(c3nnnn3-c3ccccc3)CCCC2)cc1,–,inactive: -5.04%
COc1ccc(CCNC(=O)CCc2c(C)nc3c(c(C)nn3-c3ccc(C)c(C)c3)c2C)cc1OC,"inconclusive: 89.1 µM [inhibitor, single point]",–
O=c1c2c(nc3nc(NCc4c(Cl)cccc4Cl)[nH]n13)CCC2,–,inactive: -3.76%
Cc1ccc(CNC(=O)CCC(=O)N2CC3CCCN3c3ccccc32)cc1 (centres undefined),"inconclusive: 50.1 µM [inhibitor, partial curve, poor fit]",–
COc1ccc(-c2csc(N3N=C(C)CC3c3cc(OC)c(OC)c(OC)c3)n2)cc1 (centres undefined),"inconclusive: 56.2 µM [inhibitor, partial curve, poor fit]",–
CCC1CCCCN1S(=O)(=O)c1cc2c3c(c1)CC(=O)N3CCC2 (centres undefined),–,inactive: 11.8%
CC(=O)N(C)c1ccc(NC(=O)CCC2CCCC2)cc1,–,inactive: 3.54%
COc1ccc(S(=O)(=O)N2Cc3ccccc3CC2C(=O)Nc2ccc(C)cc2C)cc1OC (centres undefined),"inconclusive: 39.8 µM [inhibitor, single point]",–
Cc1ccc(NC(=O)Cn2nc(N3CCN(c4ccccc4)CC3)ccc2=O)cc1F,"inconclusive: 44.7 µM [inhibitor, partial curve, poor fit]",–
N#Cc1ccccc1OCC(=O)N1CCC(c2nc3ccccc3o2)CC1,–,inactive: 0.73%

Compound,Potency,"activity change, negative = inhibition"
CCCSc1ncc(Cl)c(C(=O)N(Cc2ccc(Cl)cc2)Cc2ccco2)n1,"inconclusive: 35.5 µM [inhibitor, partial curve, poor fit]",–
CCCCOc1ccc(C(=O)NCc2nnnn2-c2ccc(C)c(C)c2)cc1,"inconclusive: 50.1 µM [inhibitor, partial curve, poor fit]",–
CCc1noc(C)c1C(=O)Nc1ccc(C)c(C)c1,–,inactive: -13.9%
COc1ccc(CNC(=O)c2cnn3c(C)c(Cc4c(F)cccc4Cl)c(C)nc23)cc1,active: 35.5 µM,–
O=C(NCCCN1CCN(c2cccc(Cl)c2)CC1)c1cnn(-c2ccc(F)cc2)c1-n1cccc1,"inconclusive: 15.8 µM [inhibitor, full curve, poor fit]",–
COc1ccc(Oc2c(C)oc3cc(OCC(=O)N(C)Cc4ccccc4)ccc3c2=O)cc1,"inconclusive: 35.5 µM [inhibitor, partial curve]",–
Cc1cc(-c2ccc(C)c(S(=O)(=O)N3CCOc4ccc(Cl)cc43)c2)on1,"inconclusive: 17.8 µM [inhibitor, full curve, poor fit]",–
Cc1ccc(C(=O)/C(=C\c2ccc(Cl)c(Cl)c2)c2nc3ccccc3o2)cc1,–,inactive: 1.04%
CC1CCc2c(sc(NC(=O)CCCOc3ccccc3)c2C(N)=O)C1 (centres undefined),"inconclusive: 100 µM [inhibitor, single point]",–
COc1cccc(/C=C/C(=O)c2ccc(O)c(CCCl)c2)c1,–,inactive: -19.2%
CCc1ccc2c(c1)c(=O)c(S(=O)(=O)c1ccc(F)cc1)cn2CC(=O)Nc1ccccc1OC,"inconclusive: 8.91 µM [inhibitor, full curve, poor fit]",–
CCc1cccc(C)c1Nc1c(-c2cccs2)nc2ncccn12,"inconclusive: 50.1 µM [inhibitor, partial curve, poor fit]",–
O=c1nc2n(-c3ccc(Cl)c(Cl)c3)c3cc(Cl)ccc3cc-2c(=O)[nH]1,"inconclusive: 31.6 µM [inhibitor, partial curve]",–
CCOC(=O)c1ccc(NC(=O)Nc2cc3c(cc2N2CCCCC2)n(CC)c(=O)n3CC)cc1,"inconclusive: 35.5 µM [inhibitor, full curve, poor fit]",–
CCCN(C(=O)c1cc2c(s1)-c1ccccc1OC2)c1ccc(C(C)C)cc1,"inconclusive: 89.1 µM [inhibitor, single point]",–
CCOC(=O)Cc1ccc(NC(=O)Nc2nnc(N3CCCCC3C)s2)cc1 (centres undefined),"inconclusive: 35.5 µM [inhibitor, full curve, poor fit]",–
CCCOC(=O)c1c(-c2ccccc2)c(-c2ccccc2)nn(C)c1=O,"inconclusive: 79.4 µM [inhibitor, single point]",–
Cc1c(Cl)cccc1-n1ncc(C(=O)NC2CCCC2)c1C1CCN(C(=O)OC(C)(C)C)CC1,"inconclusive: 22.4 µM [inhibitor, single point]",–
CCNC(=S)N/N=C1\CC2CC=CC12 (centres undefined),–,inactive: 1.07%
Cc1ccc(-n2nc3c(N4CCCC(C(=O)NCc5ccccc5C)C4)nnc(C)c3c2C)cc1 (centres undefined),"inconclusive: 8.91 µM [inhibitor, full curve, poor fit]",–
O=C(CCC1CCCCC1)Nc1ccc(F)cc1,–,inactive: 8.2%
Cc1ccc(Cn2c(C)c3cnn(CC(=O)N4CCN(c5cc(C)ccc5C)CC4)c(=O)c3c2C)cc1,"inconclusive: 10 µM [inhibitor, full curve]",–
O=C(O)/C(=C\c1ccc(F)cc1)NC(=O)c1ccco1,–,inactive: 3.34%

Compound,Potency,"activity change, negative = inhibition"
Cc1[nH]nc2c1C(c1cccc(OCc3ccc(Cl)cc3)c1)C(C#N)=C(N)O2 (centres undefined),–,inactive: 8.28%
CC(C)c1ccc(NC(=O)CN2C(=O)C3(SCC(=O)N3c3ccc(F)cc3)c3ccccc32)cc1 (centres undefined),"inconclusive: 22.4 µM [inhibitor, partial curve, poor fit]",–
O=C(Nc1ccc(Cl)cc1)c1ccc2c(c1)N(Cc1ccccc1)C(=O)c1ccccc1S2(=O)=O,"inconclusive: 15.8 µM [inhibitor, partial curve, poor fit]",–
CN(Cc1ccsc1)C(=O)/C=C/c1cccc2ccccc12,–,inactive: -23%
CC(C)c1ccc(NC(=O)CCS(=O)(=O)c2ccc(Br)s2)cc1,–,inactive: 14.8%
COc1cccc(-c2nc(S(=O)(=O)c3ccccc3)c(NCc3ccccc3)o2)c1,"inconclusive: 44.7 µM [inhibitor, partial curve, poor fit]",–
CN(CC(=O)NC1CCCCNC1=O)Cc1cccc(F)c1 (centres undefined),–,inactive: 1.16%
COc1cccc(-c2cc(C(F)(F)F)nc(NCc3ccc(F)cc3)n2)c1,"inconclusive: 25.1 µM [inhibitor, partial curve]",–
CC(=O)Oc1c(Cl)cc(Cl)cc1Sc1cc(Cl)cc(Cl)c1OC(C)=O,–,inactive: -6.63%
COc1ccc(-n2c(-c3ccc(Cl)cc3)cc3c2CC(C)(C)CC3=O)c(OC)c1,"inconclusive: 8.91 µM [inhibitor, full curve, poor fit]",–
CC1=C(C(=O)Nc2ccc(C)cc2C)C(c2ccc(C(C)C)cc2)n2nc(C(F)(F)F)nc2N1 (centres undefined),"inconclusive: 12.6 µM [inhibitor, partial curve, poor fit]",–
Cc1cccc(OCCn2nnc3sc4c(c3c2=O)CCCC4)c1,"inconclusive: 11.2 µM [inhibitor, full curve, poor fit]",–
CC(C)(C)OC(=O)N1CCC(c2c(C(=O)N3CCN(C4CCCCC4)CC3)cnn2-c2cccc(Cl)c2)CC1,"inconclusive: 44.7 µM [inhibitor, partial curve, poor fit]",–
COc1ccc(NC(=O)Nc2cn(CC(C)C)c(=O)c3ccccc23)c(OC)c1,–,inactive: 61.4%
Cc1cccc2c1N(Cc1ccc(OC(C)C)cc1)C(=O)C2=O,–,inactive: -7.84%
CCCc1nn2c(=O)cc(COC(=O)c3ccc(NC(=O)c4cccs4)cc3)nc2s1,"inconclusive: 15.8 µM [inhibitor, full curve, poor fit]",–
COc1cccc(N2CCN(S(=O)(=O)c3ccc(-c4cnc(C5CC5)o4)cc3)CC2)c1,"inconclusive: 100 µM [inhibitor, single point]",–
COc1ccc(-n2nc(C)c3c2NC(=O)CC3c2ccc(O)cc2)cc1 (centres undefined),–,inactive: -4.44%
COc1cccc(/C=C/c2nc(C#N)c(N(C)Cc3ccccc3)o2)c1,"inconclusive: 100 µM [inhibitor, single point]",–
N#Cc1nc(C2CC2)oc1N1CCN(C(=O)c2ccc[nH]c2=O)CC1,–,inactive: -1.23%
